Data from patent US20120282279A1 (COVX TECHNOLOGIES IRELAND, published 2012).

Tests used:
[1] = molecular target: FGF21 cell surface receptor composed of FGFR1c and β-Klotho (on the cells of the bioactivity assays) (UniProt P16092 22-822; Q99N32 1-1043, limits assumed); test: cell-based or functional assay
[2] = molecular target: T1, FGF-R/β-Klotho on HEK-293 cells (UniProt Q86Z14 1-1044); test: Indirect FGF-R/β-Klotho HEK-293 cell binding ELISA; liquid formulation D after 2 weeks at 40° C.
T1 construct: whole, on cells

[3] = molecular target: T1, FGF-R/β-Klotho on HEK-293 cells; test: Indirect FGF-R/β-Klotho HEK-293 cell binding ELISA; liquid formulation F after 2 weeks at 40° C.
[4] = molecular target: T1, FGF-R/β-Klotho on HEK-293 cells; test: Indirect FGF-R/β-Klotho HEK-293 cell binding ELISA; liquid formulation F after 2 weeks at 25° C.
[5] = molecular target: T1, FGF-R/β-Klotho on HEK-293 cells; test: Indirect FGF-R/β-Klotho HEK-293 cell binding ELISA; liquid formulation B after 2 weeks at 25° C.
[6] = molecular target: T1, FGF-R/β-Klotho on HEK-293 cells; test: Indirect FGF-R/β-Klotho HEK-293 cell binding ELISA; liquid formulation B after 2 weeks at 40° C.
[7] = molecular target: T1, FGF-R/β-Klotho on HEK-293 cells; test: Indirect FGF-R/β-Klotho HEK-293 cell binding ELISA; lyophilized formulation A after 2 weeks at 5° C.
[8] = molecular target: T1, FGF-R/β-Klotho on HEK-293 cells; test: Indirect FGF-R/β-Klotho HEK-293 cell binding ELISA; liquid formulation D after 2 weeks at 25° C.

T1 sequence (Q86Z14 whole entry): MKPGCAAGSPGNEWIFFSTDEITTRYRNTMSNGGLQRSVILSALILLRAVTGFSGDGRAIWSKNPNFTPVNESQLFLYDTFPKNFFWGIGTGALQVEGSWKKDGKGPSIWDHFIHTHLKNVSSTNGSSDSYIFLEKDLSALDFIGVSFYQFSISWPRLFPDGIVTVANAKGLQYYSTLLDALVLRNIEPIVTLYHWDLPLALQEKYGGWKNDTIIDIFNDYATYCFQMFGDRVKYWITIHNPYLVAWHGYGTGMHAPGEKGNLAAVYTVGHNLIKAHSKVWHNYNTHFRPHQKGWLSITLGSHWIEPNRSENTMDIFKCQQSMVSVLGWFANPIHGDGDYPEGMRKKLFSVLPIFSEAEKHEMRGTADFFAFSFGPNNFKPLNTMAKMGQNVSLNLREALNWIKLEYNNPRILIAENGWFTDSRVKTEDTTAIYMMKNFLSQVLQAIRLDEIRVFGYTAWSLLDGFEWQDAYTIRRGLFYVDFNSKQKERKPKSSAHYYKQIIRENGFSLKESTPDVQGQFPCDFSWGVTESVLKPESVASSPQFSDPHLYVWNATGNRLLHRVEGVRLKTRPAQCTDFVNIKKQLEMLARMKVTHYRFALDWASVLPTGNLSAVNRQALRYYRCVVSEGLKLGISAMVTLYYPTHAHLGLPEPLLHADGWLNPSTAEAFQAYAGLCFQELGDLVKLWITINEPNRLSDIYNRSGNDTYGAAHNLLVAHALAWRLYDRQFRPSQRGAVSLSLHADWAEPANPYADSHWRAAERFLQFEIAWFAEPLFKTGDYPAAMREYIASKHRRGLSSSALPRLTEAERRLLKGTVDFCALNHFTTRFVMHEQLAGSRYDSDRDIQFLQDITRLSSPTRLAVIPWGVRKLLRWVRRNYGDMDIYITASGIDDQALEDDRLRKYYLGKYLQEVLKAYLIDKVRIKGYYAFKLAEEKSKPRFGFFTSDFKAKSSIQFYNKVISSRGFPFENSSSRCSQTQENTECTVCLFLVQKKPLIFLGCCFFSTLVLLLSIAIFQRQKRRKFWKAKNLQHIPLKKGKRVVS
Sequence of UniProt P16092 (P16092 22-822 limits assumed, chain 1 of 2): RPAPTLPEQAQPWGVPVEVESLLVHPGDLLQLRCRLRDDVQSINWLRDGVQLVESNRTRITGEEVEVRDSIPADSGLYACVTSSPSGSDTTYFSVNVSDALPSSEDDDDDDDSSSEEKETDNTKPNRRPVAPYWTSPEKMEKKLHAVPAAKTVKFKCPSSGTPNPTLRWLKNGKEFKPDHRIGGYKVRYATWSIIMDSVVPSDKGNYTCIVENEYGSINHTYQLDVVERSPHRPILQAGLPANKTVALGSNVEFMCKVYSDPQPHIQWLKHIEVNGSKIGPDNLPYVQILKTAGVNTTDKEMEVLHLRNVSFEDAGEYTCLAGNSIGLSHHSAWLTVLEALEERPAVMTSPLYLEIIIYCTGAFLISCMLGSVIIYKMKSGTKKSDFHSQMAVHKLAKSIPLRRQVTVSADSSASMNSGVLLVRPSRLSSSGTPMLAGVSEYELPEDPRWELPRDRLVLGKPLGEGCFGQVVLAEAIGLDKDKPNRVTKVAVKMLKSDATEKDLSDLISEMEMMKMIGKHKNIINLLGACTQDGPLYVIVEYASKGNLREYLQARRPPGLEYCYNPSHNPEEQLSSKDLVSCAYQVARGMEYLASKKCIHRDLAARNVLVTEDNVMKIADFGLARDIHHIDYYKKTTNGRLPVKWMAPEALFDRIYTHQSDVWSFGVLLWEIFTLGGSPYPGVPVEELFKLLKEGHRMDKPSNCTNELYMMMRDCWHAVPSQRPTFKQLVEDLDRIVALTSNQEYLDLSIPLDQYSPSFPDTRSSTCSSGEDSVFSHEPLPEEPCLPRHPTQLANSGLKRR
Sequence of UniProt P16092 (Q99N32 whole entry, chain 2 of 2, further chain): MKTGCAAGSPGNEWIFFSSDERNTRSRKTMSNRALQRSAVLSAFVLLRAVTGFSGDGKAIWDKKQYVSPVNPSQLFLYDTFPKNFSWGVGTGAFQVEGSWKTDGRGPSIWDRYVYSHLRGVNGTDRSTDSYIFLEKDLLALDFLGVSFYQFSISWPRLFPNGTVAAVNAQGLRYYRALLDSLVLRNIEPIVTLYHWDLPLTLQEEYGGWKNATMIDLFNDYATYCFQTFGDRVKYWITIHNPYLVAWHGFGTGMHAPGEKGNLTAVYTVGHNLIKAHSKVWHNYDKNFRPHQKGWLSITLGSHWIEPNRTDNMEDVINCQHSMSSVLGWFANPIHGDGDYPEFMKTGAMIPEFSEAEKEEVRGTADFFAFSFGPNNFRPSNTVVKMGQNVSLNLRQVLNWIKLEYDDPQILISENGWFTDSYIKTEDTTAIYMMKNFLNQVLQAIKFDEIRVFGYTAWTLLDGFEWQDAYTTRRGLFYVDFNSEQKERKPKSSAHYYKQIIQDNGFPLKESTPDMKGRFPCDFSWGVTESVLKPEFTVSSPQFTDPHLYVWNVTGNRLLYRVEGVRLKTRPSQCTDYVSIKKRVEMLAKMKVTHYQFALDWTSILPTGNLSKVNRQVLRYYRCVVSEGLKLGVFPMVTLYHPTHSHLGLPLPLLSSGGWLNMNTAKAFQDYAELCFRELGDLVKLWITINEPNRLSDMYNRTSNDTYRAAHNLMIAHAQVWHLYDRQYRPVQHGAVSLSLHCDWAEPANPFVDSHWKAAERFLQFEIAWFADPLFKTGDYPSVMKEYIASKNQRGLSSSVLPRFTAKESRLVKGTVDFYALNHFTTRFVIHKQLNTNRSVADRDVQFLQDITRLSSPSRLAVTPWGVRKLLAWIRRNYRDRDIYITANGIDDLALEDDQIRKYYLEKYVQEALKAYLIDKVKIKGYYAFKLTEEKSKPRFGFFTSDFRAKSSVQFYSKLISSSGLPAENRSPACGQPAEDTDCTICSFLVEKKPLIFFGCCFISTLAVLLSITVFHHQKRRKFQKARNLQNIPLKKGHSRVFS

B1: Ab-L1-FGF21ΔH-D79C (other)
heavy: EVQLVESGGGLVQPGGSLRLSCAASGFTFSNYWMSWVRQSPEKGLEWVSEIRLRSDNYATHYAESVKGRFTISRDNSKNTLYLQMNSLRAEDTGIYYCKTYFYSFSYWGQGTLVTVSSASTKGPSVFPLAPSSKSTSGGTAALGCLVKDYFPEPVTVSWNSGALTSGVHTFPAVLQSSGLYSLSSVVTVPSSSLGTQTYICNVNHKPSNTKVDKRV[gap - human IgG1 Fc]
light: ELQMTQSPSSLSASVGDRVTITCRSSQSLLHTYGSPYLNWYLQKPGQSPKLLIYKVSNRFSGVPSRFSGSGSGTDFTLTISSLQPEDFAVYFCSQGTHLPYTFGGGTKVEIKRTVAAPSVFIFPPSDEQLKSGTASVVCLLNNFYPREAKVQWKVDNALQSGNSQESVTEQDSKDSTYSLSSTLTLSKADYEKHKVYACEVTHQGLSSPVTKSFNRGEC
chain: PIPDSSPLLQFGGQVRQRYLYTDDAQQTEAHLEIREDGTVGGAADQSPESLLQLKALKPGVIQILGVKTSRFLCQRPCGALYGSLHFDPEACSFRELLLEDGYNVYQSEAHGLPLHLPGNKSPHRDPAPRGPARFLPLPGLPPAPPEPPGILAPQPPDVGSSDPLSMVGPSQGRSPSYAS
modifications: Cys79 (numbering of SEQ ID NO:1) conjugated to linker-1 (L1); side chain of Lys99 covalently linked to linker-1 (L1)
[1]
  Glut1 Taqman Conjugate EC50: 3.7 nM

B2: Ab-L1-FGF21ΔH-A129C (other)
heavy: EVQLVESGGGLVQPGGSLRLSCAASGFTFSNYWMSWVRQSPEKGLEWVSEIRLRSDNYATHYAESVKGRFTISRDNSKNTLYLQMNSLRAEDTGIYYCKTYFYSFSYWGQGTLVTVSSASTKGPSVFPLAPSSKSTSGGTAALGCLVKDYFPEPVTVSWNSGALTSGVHTFPAVLQSSGLYSLSSVVTVPSSSLGTQTYICNVNHKPSNTKVDKRV[gap - human IgG1 Fc]
light: ELQMTQSPSSLSASVGDRVTITCRSSQSLLHTYGSPYLNWYLQKPGQSPKLLIYKVSNRFSGVPSRFSGSGSGTDFTLTISSLQPEDFAVYFCSQGTHLPYTFGGGTKVEIKRTVAAPSVFIFPPSDEQLKSGTASVVCLLNNFYPREAKVQWKVDNALQSGNSQESVTEQDSKDSTYSLSSTLTLSKADYEKHKVYACEVTHQGLSSPVTKSFNRGEC
chain: PIPDSSPLLQFGGQVRQRYLYTDDAQQTEAHLEIREDGTVGGAADQSPESLLQLKALKPGVIQILGVKTSRFLCQRPDGALYGSLHFDPEACSFRELLLEDGYNVYQSEAHGLPLHLPGNKSPHRDPCPRGPARFLPLPGLPPAPPEPPGILAPQPPDVGSSDPLSMVGPSQGRSPSYAS
modifications: thiol group of Cys129 (numbering of SEQ ID NO:1) covalently conjugated to linker-1 (L1); side chain of Lys99 covalently linked to linker-1 (L1)
notes: Antibody-protein conjugate: one FGF21ΔH-A129C is joined through L1 to the combining site of each arm of h38C2 IgG1; also called Ab-FGF21ΔH-A129C; Ab-(FGF21ΔH-A129C-L1)2
[1]
  Glut1 Taqman Conjugate EC50: 2.7 nM
[2]
  Bioactivity (relative %): 61 % relative to a reference material
[3]
  Bioactivity (relative %): 49 % relative to a reference material
[4]
  Bioactivity (relative %): 98 % relative to a reference material
[5]
  Bioactivity (relative %): 107 % relative to a reference material
[6]
  Bioactivity (relative %): 64 % relative to a reference material
[7]
  Bioactivity (relative %): 105 % relative to a reference material
[8]
  Bioactivity (relative %): 97 % relative to a reference material

B3: Ab-L1-FGF21ΔH-H125C (other)
heavy: EVQLVESGGGLVQPGGSLRLSCAASGFTFSNYWMSWVRQSPEKGLEWVSEIRLRSDNYATHYAESVKGRFTISRDNSKNTLYLQMNSLRAEDTGIYYCKTYFYSFSYWGQGTLVTVSSASTKGPSVFPLAPSSKSTSGGTAALGCLVKDYFPEPVTVSWNSGALTSGVHTFPAVLQSSGLYSLSSVVTVPSSSLGTQTYICNVNHKPSNTKVDKRV[gap - human IgG1 Fc]
light: ELQMTQSPSSLSASVGDRVTITCRSSQSLLHTYGSPYLNWYLQKPGQSPKLLIYKVSNRFSGVPSRFSGSGSGTDFTLTISSLQPEDFAVYFCSQGTHLPYTFGGGTKVEIKRTVAAPSVFIFPPSDEQLKSGTASVVCLLNNFYPREAKVQWKVDNALQSGNSQESVTEQDSKDSTYSLSSTLTLSKADYEKHKVYACEVTHQGLSSPVTKSFNRGEC
chain: PIPDSSPLLQFGGQVRQRYLYTDDAQQTEAHLEIREDGTVGGAADQSPESLLQLKALKPGVIQILGVKTSRFLCQRPDGALYGSLHFDPEACSFRELLLEDGYNVYQSEAHGLPLHLPGNKSPCRDPAPRGPARFLPLPGLPPAPPEPPGILAPQPPDVGSSDPLSMVGPSQGRSPSYAS
modifications: Cys125 (numbering of SEQ ID NO:1) conjugated to linker-1 (L1); side chain of Lys99 covalently linked to linker-1 (L1)
[1]
  Glut1 Taqman Conjugate EC50: 3.2 nM
